Source: publication PMC4336329 (PLoS ONE, 2015)
Out of some 310,000 compounds screened, about 2,200 (0.71%) showed an effect of 50% or more. The effect is printed as a negative number. Some of the results follow.

target: human ether-à-go-go-related gene (hERG) potassium channel (human, UniProt Q12809); assay: primary screen, population patch clamp on CHO cells stably expressing hERG
Sequence (Q12809 whole entry, looked up): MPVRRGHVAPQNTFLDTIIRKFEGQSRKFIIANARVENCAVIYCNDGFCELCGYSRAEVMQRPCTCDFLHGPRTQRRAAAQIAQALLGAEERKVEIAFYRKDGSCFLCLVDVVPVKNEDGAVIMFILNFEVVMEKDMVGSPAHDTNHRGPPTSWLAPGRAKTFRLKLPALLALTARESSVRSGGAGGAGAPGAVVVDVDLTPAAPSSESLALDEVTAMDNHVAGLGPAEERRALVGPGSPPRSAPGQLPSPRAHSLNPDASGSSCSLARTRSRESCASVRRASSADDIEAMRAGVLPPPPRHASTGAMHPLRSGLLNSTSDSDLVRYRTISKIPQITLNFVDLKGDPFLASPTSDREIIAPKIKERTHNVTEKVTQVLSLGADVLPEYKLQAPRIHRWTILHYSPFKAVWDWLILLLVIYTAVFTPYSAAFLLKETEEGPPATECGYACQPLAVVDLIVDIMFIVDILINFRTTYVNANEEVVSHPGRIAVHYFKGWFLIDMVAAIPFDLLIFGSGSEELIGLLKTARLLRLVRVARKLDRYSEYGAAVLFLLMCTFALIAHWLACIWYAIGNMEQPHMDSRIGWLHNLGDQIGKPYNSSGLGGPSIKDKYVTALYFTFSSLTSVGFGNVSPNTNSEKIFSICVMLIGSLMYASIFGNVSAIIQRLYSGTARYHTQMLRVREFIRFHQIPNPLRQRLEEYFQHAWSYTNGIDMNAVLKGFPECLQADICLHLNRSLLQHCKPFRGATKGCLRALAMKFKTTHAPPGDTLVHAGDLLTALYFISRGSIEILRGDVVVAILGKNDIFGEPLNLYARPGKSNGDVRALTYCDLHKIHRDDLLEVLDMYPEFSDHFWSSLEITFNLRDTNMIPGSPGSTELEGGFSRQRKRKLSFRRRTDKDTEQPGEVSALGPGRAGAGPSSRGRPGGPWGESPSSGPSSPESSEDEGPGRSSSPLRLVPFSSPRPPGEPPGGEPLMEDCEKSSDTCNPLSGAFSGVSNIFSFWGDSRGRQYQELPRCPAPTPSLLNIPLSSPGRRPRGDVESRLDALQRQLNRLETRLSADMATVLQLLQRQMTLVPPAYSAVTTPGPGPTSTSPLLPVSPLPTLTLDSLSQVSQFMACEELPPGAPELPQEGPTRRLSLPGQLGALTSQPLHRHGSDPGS

Compound	hERG current change (%, negative = inhibition) at 1uM
c1ccc(-c2ccc3[nH]ccc3c2)cc1	7.13%
CCCc1nc(SCC(=O)NNC(=O)c2ccc(OC)cc2)c2ccccc2n1	3.84%
CC(OC(=O)c1cc(S(=O)(=O)Nc2ccc(F)cc2)ccc1Cl)C(=O)Nc1ccc2c(c1)OCCO2 (stereo not shown)	8.96%
CCCn1c(=O)[nH]c(=O)c2c(C(F)(F)F)cc(-c3ccc(C)cc3)nc21	15.2%
O=C(CCCc1ccccc1)Nc1ccccc1[N+](=O)[O-]	14.8%
COc1cc(-c2noc(C3CCCN(C(=O)c4ccccc4)C3)n2)cc(OC)c1OC (stereo not shown)	1.93%
O=C(N/N=C/C1CCCCC1)c1cc(Cl)ccc1O	2.28%
O=C(CNC(=O)c1ccc(S(=O)(=O)N2CCCC2)cc1)N/N=C/c1ccc(F)cc1	8.22%
O=C(CCC(=O)N1CCN(c2ccc(F)cc2)CC1)N1CCN(c2ccc(F)cc2)CC1	-15.1%
CC(=O)c1cc2c(C)cc(=O)oc2cc1O	11.6%
O=C(CCN1C(=O)/C(=C\c2ccccc2)SC1=S)N1CCOCC1	17.4%
CC(=O)c1cccc(NC(=O)CN2C(=O)c3ccccc3C2=O)c1	12.4%
O=C1CN(C(=O)c2ccccc2C(=O)O)c2ccccc2N1	13.2%
O=[N+]([O-])c1ccc(Nc2ccc3ccccc3c2)nc1	8.78%
COc1ccc(OC)c(NC(=O)CCNC(=O)c2ccco2)c1	7.57%
O=C(NC1CCN(Cc2ccccc2)CC1)C(NS(=O)(=O)c1cccc2nsnc12)c1ccccc1 (stereo not shown)	-12.1%
CCCCOC(=O)C(C)Oc1ccc(=O)n(-c2ccccc2)n1 (stereo not shown)	5.48%
O=C(NNS(=O)(=O)c1ccccc1[N+](=O)[O-])c1cccc(Br)c1	9.91%
COc1ccccc1CN1C[C@@H]2C[C@@H](c3ccc(C)cc3)N3CCC[C@@]23C1=O	-0.663%
O=C(Cc1ccc(Cl)cc1)Nc1ncccn1	11.1%
CCn1c(COc2cccc(C)c2C)nnc1SCC(=O)N1CCN(c2ccc(OC)cc2)CC1	-0.263%
C=CCn1c(SCC(=O)Nc2ccc(F)cc2)nnc1-c1cnccn1	16%

Compound	hERG current change (%, negative = inhibition) at 1uM
C=CCN1C(=O)CN=C1Nc1cccc(C)c1.Cl	12.3%
CCC(c1nnc(SCC(=O)NCC2CCCO2)n1Cc1ccccc1)N(C)C (stereo not shown)	-2.76%
CCOC(=O)C1=C(O)/C(=C\c2ccc(CNS(=O)(=O)c3ccc(Br)cc3)o2)N=C1C	12.3%
O=C(NCCc1ccccc1)C(=O)Nc1ccc([N+](=O)[O-])cc1	11%
O=C(CCCc1ccccc1)NCc1ccccc1	20.2%
CCn1cc(CN2CCc3c([nH]c4ccccc34)C2c2ccc(F)c(OC)c2)c(C)n1 (stereo not shown)	7.17%
COc1ccccc1CNS(=O)(=O)c1ccc(-n2cccn2)cc1	13.3%
CCOC(=O)C1CCCN(C(=O)c2sc3nc(C)nc(N(CC)CC)c3c2C)C1 (stereo not shown)	-11.3%
S=c1nc(-c2ccccc2)[nH]n1-c1ccccc1	7.93%
C(=N\Nc1ncnc2sc3c(c12)CCC3)/c1ccncc1	-0.416%
CC(NC(=O)C1CCCN(S(=O)(=O)c2cccs2)C1)c1ccccc1 (stereo not shown)	11.6%
CN1C(=O)NC(c2ccccc2)C2=C1CN(c1ccc3ccccc3c1)C2=O (stereo not shown)	9.13%
COc1ccc(CC(=O)Nc2ccc(OC)c(NC(=O)c3ccco3)c2)cc1	9.1%
Cc1nn(-c2ccccc2)c(C)c1NS(=O)(=O)c1ccccc1	3.04%
O=C(C[n+]1cc(Br)cc2ccccc21)c1ccccc1.[Br-]	9.44%
CN(C)c1ccc(C(O)P(=O)(OC2CCCCC2)OC2CCCCC2)cc1 (stereo not shown)	13.3%
CCOC(=O)c1c(C)c(C(=O)NCC2CCCO2)c(C)n1C (stereo not shown)	13.7%
Cc1cc(NC(=O)CCC(=O)N(Cc2ccco2)C(C(=O)NC2CCCC2)c2ccccc2)no1 (stereo not shown)	1.95%
O=C(/C=C/c1ccc([N+](=O)[O-])cc1)NNC(=O)C1CC1	1.2%
CCOC(=O)c1ccc(NCCc2ccc(OC)c(OC)c2)c(N)c1	7.71%
O=C(O)c1ccc2c(c1)CCCN2	13%
COC(=O)C1C(=O)C(C(=O)/C=C/c2ccccc2)C(=O)CC1(C)C (stereo not shown)	15.1%

Compound	hERG current change (%, negative = inhibition) at 1uM
Cc1ccc(NC(=O)CNC(=O)c2ccco2)cc1	14.7%
O=C(NCC1CCCCC1)c1ccc(F)c(S(=O)(=O)N2CCOCC2)c1	2.63%
CCN(CC)c1nc(C)c(C(=S)Nc2cc([N+](=O)[O-])ccc2Cl)s1	5.14%
COc1ccc(CN(CC(=O)NCc2ccc(F)cc2)C(=O)c2ccco2)cc1	-12%
O=C(O)C(=O)O.O=C(c1ccco1)N1CCN(CC2CC3C=CC2C3)CC1 (stereo not shown)	-5.37%
CCC(C)(CCNC(=O)Cc1ccccc1)c1ccccc1OC (stereo not shown)	-9.88%
CC(=O)Nc1ccc(S(=O)(=O)NCCC(=O)NCCc2ccc(F)cc2)cc1	9.6%
COc1cc(C(=O)Nc2nc(N)n(-c3ccccc3)n2)cc(OC)c1OC	3.39%
CCOC(=O)C1=C(C)N(c2ccccc2)C(=O)/C1=C\c1ccc(O)c(OC)c1	2.6%
CCCn1c(O)c(CN2CCCC(C)C2)c(C)c(C#N)c1=O (stereo not shown)	8.81%
COCCN(C(=O)COC(=O)CCS(=O)(=O)c1ccccc1)c1c(N)n(Cc2ccccc2)c(=O)[nH]c1=O	-2.21%
O=C(O)CN1CCN(Cc2ccc(Cl)cc2)C1=O	-7.06%
COC(=O)[C@H](C)[C@H]1C[C@]1(C)[C@H](NC(=O)OCc1ccccc1)c1ccccc1	8.14%
O=[N+]([O-])c1cccc(/C=N/N2CCN(Cc3ccccc3)CC2)c1	14.4%
COCc1cc(C)nc2sc(C(=O)N3CCCCC3)c(N)c12	1.53%
O=S(=O)(NCc1ccco1)c1ccc2c(c1)Cc1ccccc1-2	-1.55%
Cc1ccc(NC(=O)c2ccc(C)c(S(=O)(=O)N3CCOCC3)c2)nc1	12.9%
COc1cccc(-c2noc(C3CCCN(C(=O)c4ccc(F)cc4)C3)n2)c1 (stereo not shown)	11.4%
COc1ccccc1/C=N/n1cnnc1	11.1%
CCCN1C(=O)COc2ccc(-c3n[nH]c(=O)c4ccccc34)cc21	17.8%
Cc1nn(Cc2ccccc2)c(Cl)c1C(=O)Nc1ccc(OC(F)(F)F)cc1	14.6%
CC(=O)Nc1ccc(C2CN(C)CC2C(=O)c2ccc(Cl)cc2)cc1 (stereo not shown)	-6.1%

Compound	hERG current change (%, negative = inhibition) at 1uM
CCOC(=O)c1sc2nc(C)cc(-c3ccccc3)c2c1N	-0.469%
Nc1nnc(SCC(=O)Nc2cc(S(=O)(=O)N3CCOCC3)ccc2Cl)s1	-1.36%
COC(=O)[C@@H]1C[C@H]1[C@@H](NS(=O)(=O)c1ccccc1)c1ccccc1	3.44%
CN(CC(=O)Nc1cccc(F)c1)C(=O)c1cccnc1Sc1ccccc1Cl	1.49%
Cn1ccnc1-c1nnn(-c2ccc(F)cc2)n1	12.1%
CCCCn1c(=O)c(C(=O)NCc2ccccc2Cl)c(O)c2ccccc21	14.4%
COCC(C)n1c(SCC(=O)N2CCc3ccccc3C2)nc2ccccc2c1=O (stereo not shown)	-0.208%
CNc1ccccc1C(=O)OCC(=O)c1ccccc1	18.2%
Cc1cccc(N2C(=O)CN=C2Nc2nc(C)cc(C)n2)c1	-2.73%
COc1ccc(-n2c(CNC(=O)c3cc(OC)c(OC)c(OC)c3)n[nH]c2=S)cc1	5.95%
COc1ccc(C(=O)N[C@H](C(=O)N2CCN(c3ccccc3F)CC2)C(C)C)cc1	-2.54%
COc1cc(OC)cc(C(=O)N2CCN(c3ncccn3)CC2)c1	-11.2%
Cc1cc(O)cc(C)c1NS(=O)(=O)c1ccc2ccccc2c1	6.15%
Cc1ccc(C(=O)NCc2ccccc2)c(F)c1F	6.49%
N/C(=N\OC(=O)c1ccccc1Br)c1cccc([N+](=O)[O-])c1	12.6%
CCOC(=O)c1ccc(NC(=O)Nc2cccc(C)n2)cc1	10%
N#CC1=C(N)OC2=C(C(=O)CCC2)[C@]12C(=O)N(CC(N)=O)c1ccccc12	6.38%
CC1NC(=S)N(C2CCCCC2)C1=O (stereo not shown)	21%
O=C(Nc1cccc(F)c1)Nc1ccnn1C1CCN(C(=O)c2cscn2)CC1	9.93%
CCOC(=O)C1(CC)NC(c2ccc(OC)c(OC)c2)C2C(=O)N(c3cccc(C(C)=O)c3)C(=O)C21 (stereo not shown)	14.2%
COC(=O)c1cccc(NC(=O)c2ccc3c(c2)C(=O)N(Cc2cccnc2)C3=O)c1	9.79%
CCCC(=O)Nc1cccn(Cc2ccccc2Br)c1=O	11.5%
